# The other results are listed elsewhere or left out. The full chains were built here from the parent and the listed change. Inactive controls read about 0.05.
# B1: TEV protease; numbered along this chain (parent)
# chain: MGESLFKGPRDYNPISSSICHLTNESDGHTTSLYGIGFGPFIITNKHLFRRNNGTLVVQSLHGVFKVKDTTTLQQHLVDGRDMIIIRMPKDFPPFPQKLKFREPQREERICLVTTNFQTKSMSSMVSDTSCTFPSGDGIFWKHWIQTKDGQCGSPLVSTRDGFIVGIHSASNFTNTNNYFTSVPKNFMELLTNQEAQQWVSGWRLNADSVLWGGHKVFMVKPEEPFQPVKEATQL
# Variants of: B1
# Assay: raw area under fraction-flipped curve 0-4 h after induction (AUC4h, not background-subtracted), DNA-recorder readout of cleavage of the substrate (dimensionless); higher = more cleavage of the substrate by the protease variant
# Conditions: temperature: 34 °C; time window: 0-4 h after rhamnose induction
# Protocol: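 In vivo DNA recorder in E. coli TOP10(DE3) ΔrhaA at 34 °C. Each TEVp single-site mutant (parent TEVp 0) is paired with a single-site variant of the 7-mer TEVs (canonical ENLYFQ|S). The substrate sits between flexible linkers in a Bxb1-sfGFP-TEVs-SsrA fusion, so cleavage stabilises Bxb1 and speeds flipping of a recombination array, read by NGS. The value is the raw area under the fraction-flipped curve over 0-4 h after rhamnose induction (AUC4h), with ≥20 reads per time point. It is not background-subtracted; inactive controls average about 0.047.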
# 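Also: Bxb1 expression induced with 0.2% (w/v) L-rhamnose at OD600 near 0.5, cultures sampled hourly, flipped fraction per protease–substrate barcode pair counted by paired-end Illumina sequencing.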
Variant,area with substrate ENLYFQA,area with substrate ENLYFQC,area with substrate ENLYFQE,area with substrate ENLYFQF,area with substrate ENLYFQG,area with substrate ENLYFQI,area with substrate ENLYFQK,area with substrate ENLYFQM,area with substrate ENLYFQP,area with substrate ENLYFQR,area with substrate ENLYFQS,area with substrate ENLYFQT,area with substrate ENLYFQW,area with substrate ENLYFQY,area with substrate ENLYFQL,area with substrate ENLYFQN,area with substrate ENLYFQV,area with substrate ENLYFQD,area with substrate ENLYFQH,area with substrate ENLYFQQ
P94Y,0.0957,0.12,0.0592,0.0676,0.103,0.0584,0.0633,0.0796,0.0591,0.0504,0.0988,0.0662,0.0728,0.0715,,,,,,
Q59V,0.108,0.121,,,0.102,0.0583,0.0603,0.063,0.077,,0.106,0.062,0.0586,0.0839,0.0632,0.0972,0.0645,,,
C20A,0.0964,0.111,,,,0.065,,0.0866,,0.0534,0.0999,0.0663,0.059,0.072,0.0512,0.0914,0.0278,0.065,0.0719,
G166S,0.0321,,,,,0.0506,0.0489,,0.0695,0.0334,0.0529,0.0495,0.0463,0.0536,0.0551,0.0445,,,0.0465,0.0578
F101Q,0.0315,0.0526,,0.0403,0.0501,,0.0473,0.048,,0.0598,0.0505,,0.0501,0.0443,0.041,0.0411,0.0596,0.0415,0.0454,
T132S,0.0851,,,,,0.059,0.0741,,,0.0613,0.0951,,,,0.0504,,,0.0737,0.0807,0.0596
P89E,0.0606,0.102,,0.068,0.0886,0.064,0.0535,0.09,,0.0569,0.0925,0.05,0.0624,0.0655,0.0579,0.0952,0.058,,0.0717,
L191T,0.0858,0.0892,,0.068,0.157,,0.0596,0.0631,0.0697,0.0577,0.0756,0.0745,,,0.0529,0.0847,,0.0612,,
G153N,0.0536,0.0535,,,,,0.0515,,,0.0635,0.0507,0.0361,,,,0.0604,0.0142,,,0.0526
L33Q,0.0905,0.0869,0.0323,,,0.0616,0.0554,0.0933,0.0637,0.0645,0.0852,0.0684,0.0683,,0.0978,0.086,0.0729,0.0675,0.0706,
D11R,0.0895,0.122,,0.0796,0.111,0.0682,0.0732,0.0726,0.0553,,0.112,0.077,0.068,0.0677,0.0593,,0.0593,0.072,0.0986,
R106I,0.113,,,,,0.0619,,,,0.0508,0.101,0.0556,0.0698,,0.057,,,,,
D79G,0.0531,,,,0.0858,,,0.0865,0.0608,0.0743,0.095,0.0645,0.0596,0.0807,0.0204,0.0733,,0.0848,,0.0597
V183C,0.13,,,0.0556,0.112,,0.0588,0.0907,0.0524,0.0834,0.109,0.0779,,0.0624,0.0689,0.0335,0.0668,0.0768,,
S158H,0.0435,0.0803,,,,,0.046,0.0524,0.0514,0.0407,0.0532,0.056,0.0579,,0.0549,,0.0453,,0.0608,
V78G,0.0938,0.0925,,,0.0833,,,0.0854,0.0607,0.0629,0.0848,0.0499,0.0623,0.0573,0.0524,,0.0537,0.0591,0.0567,
D69H,0.0963,0.0338,0.0452,0.0678,0.0683,0.0508,0.0542,0.0855,0.056,0.0549,0.094,0.0572,,,0.0597,0.0666,,0.0054,0.0666,0.0735
F95R,0.0806,0.0753,,,0.0748,0.0489,,0.0538,,0.0654,0.071,0.0551,0.0425,0.0542,0.0566,,0.0277,0.0584,0.0699,0.0553
L99S,0.0799,0.0945,,,0.114,,0.0769,0.066,0.0845,0.0631,0.0849,0.0562,0.0693,,0.0552,,0.0651,0.0577,0.0757,0.0454
G37L,0.0889,,,,0.0789,0.0577,0.0666,,,0.0613,0.0753,0.0628,0.0671,,,,,0.0616,0.0669,0.0355
Y34C,0.103,0.0969,,,0.106,0.0613,,,0.0681,,0.0971,0.0595,,0.0603,0.056,,,,,
Q198Y,0.0934,0.102,,,0.0764,0.0672,0.0553,0.0799,0.0614,0.0558,0.091,0.0608,0.0615,0.0808,0.0683,0.0684,,0.0711,0.0648,
H29Y,0.0941,0.127,,0.0589,,0.0554,0.0669,0.125,0.0628,0.0537,0.113,0.0771,0.0541,0.0682,0.0717,0.081,0.0702,0.0776,0.0854,0.089
K68F,0.0922,0.107,,,,0.0589,0.0609,0.0748,,,0.0927,0.0843,,,0.0581,,,,,
P155F,0.0499,0.0452,,,0.0436,,0.0473,0.0605,0.0472,0.0585,0.0556,0.0552,0.0558,0.0399,0.0499,0.0499,0.0773,0.0532,0.0511,0.0639
P155E,0.0413,0.0403,0.0446,,,0.0458,0.0639,0.0582,0.059,0.0546,0.0519,0.0506,0.0491,0.0466,0.0429,,,,,

# From the supplement of paper PMC12217912
